{
  "source": "paper PMC4336329",
  "about": "(PLoS ONE, 2015)",
  "note": "Screen size: about 310,000 compounds; about 2,200 (0.71%) showed an effect of 50% or more. The effect is printed as a negative number. The list shows a part of the results.",
  "data": [
    {"molecular_target": "human ether-à-go-go-related gene (hERG) potassium channel (human, UniProt Q12809)", "sequence (Q12809 whole entry, looked up)": "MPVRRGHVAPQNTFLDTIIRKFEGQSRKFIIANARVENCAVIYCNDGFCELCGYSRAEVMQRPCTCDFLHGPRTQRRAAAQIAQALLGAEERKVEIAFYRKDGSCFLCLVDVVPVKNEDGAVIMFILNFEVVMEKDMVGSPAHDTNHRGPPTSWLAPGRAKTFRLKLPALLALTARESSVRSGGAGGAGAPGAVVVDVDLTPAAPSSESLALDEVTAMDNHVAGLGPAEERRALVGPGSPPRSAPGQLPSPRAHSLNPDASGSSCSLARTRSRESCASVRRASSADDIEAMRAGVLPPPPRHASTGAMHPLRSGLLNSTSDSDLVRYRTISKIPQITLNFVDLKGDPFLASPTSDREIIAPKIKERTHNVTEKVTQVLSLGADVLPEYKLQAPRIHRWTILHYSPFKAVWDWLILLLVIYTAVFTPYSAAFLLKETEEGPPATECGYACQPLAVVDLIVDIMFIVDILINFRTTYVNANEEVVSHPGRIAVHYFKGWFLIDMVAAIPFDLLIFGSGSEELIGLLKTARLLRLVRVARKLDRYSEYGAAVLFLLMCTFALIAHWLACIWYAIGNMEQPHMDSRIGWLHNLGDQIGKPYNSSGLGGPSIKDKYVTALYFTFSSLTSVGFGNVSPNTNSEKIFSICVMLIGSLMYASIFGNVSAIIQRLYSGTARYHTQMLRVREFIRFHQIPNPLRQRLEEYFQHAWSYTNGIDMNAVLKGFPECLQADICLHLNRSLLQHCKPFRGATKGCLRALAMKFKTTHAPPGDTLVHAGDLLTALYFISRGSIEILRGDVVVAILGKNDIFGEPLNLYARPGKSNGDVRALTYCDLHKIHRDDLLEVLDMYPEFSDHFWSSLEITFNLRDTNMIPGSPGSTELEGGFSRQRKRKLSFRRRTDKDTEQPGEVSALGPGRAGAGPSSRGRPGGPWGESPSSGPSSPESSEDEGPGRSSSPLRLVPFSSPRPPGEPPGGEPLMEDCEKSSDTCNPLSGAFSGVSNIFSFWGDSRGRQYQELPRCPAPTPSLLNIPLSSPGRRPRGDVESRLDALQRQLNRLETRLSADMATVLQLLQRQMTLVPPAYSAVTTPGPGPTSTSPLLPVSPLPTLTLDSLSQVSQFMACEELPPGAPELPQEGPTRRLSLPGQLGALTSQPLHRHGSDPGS", "experiment": "primary screen, population patch clamp on CHO cells stably expressing hERG", "units": {"hERG current change (%, negative = inhibition) at 1uM": "%"}, "values": [
      {"smiles": "Cc1ccc(C)c(N2CCN(C(=O)CCS(=O)(=O)c3ccc4c(c3)CCN4C(=O)C3CC3)CC2)c1", "hERG current change (%, negative = inhibition) at 1uM": 7.6},
      {"smiles": "Cc1ccc(NC(=O)C2=CC=CN3CCS(=O)(=O)N=C23)cc1", "hERG current change (%, negative = inhibition) at 1uM": 14.2},
      {"smiles": "CC1CCCN(C(=O)Cc2cn(Cc3cccc(Cl)c3)c3ccccc23)C1", "note": "(stereo not shown)", "hERG current change (%, negative = inhibition) at 1uM": 1.97},
      {"smiles": "CCN1CCCC1CNC(=O)C(=O)Nc1ccccc1", "note": "(stereo not shown)", "hERG current change (%, negative = inhibition) at 1uM": 10.8},
      {"smiles": "Cn1nc(C(=O)NNC(=O)C(CCC(N)=O)NS(=O)(=O)c2ccc(Cl)cc2)c2ccccc2c1=O", "note": "(stereo not shown)", "hERG current change (%, negative = inhibition) at 1uM": 6.9},
      {"smiles": "Cc1cc(C)c(C(=O)C(C)OC(=O)Cc2n[nH]c(=O)c3ccccc23)cc1C", "note": "(stereo not shown)", "hERG current change (%, negative = inhibition) at 1uM": 5.87},
      {"smiles": "CCn1c(SCC(=O)N/N=C/C=C/c2ccco2)nnc1-c1ccc(OC)cc1", "hERG current change (%, negative = inhibition) at 1uM": 0.386},
      {"smiles": "C=CCN(c1ccccc1)S(=O)(=O)c1cccc(C(=O)NC2CCN(Cc3ccccc3)CC2)c1", "hERG current change (%, negative = inhibition) at 1uM": -16.6},
      {"smiles": "Cc1ccc2c(Cl)c(C(=O)Nc3nn[nH]n3)sc2c1", "hERG current change (%, negative = inhibition) at 1uM": 7.49},
      {"smiles": "Cc1ccc(Cn2c(SCC(=O)NCC3CCCO3)nc3c2c(=O)n(C)c(=O)n3C)cc1", "note": "(stereo not shown)", "hERG current change (%, negative = inhibition) at 1uM": 2.65},
      {"smiles": "CN(NC(=O)c1ccco1)c1nc2ccccc2nc1C(F)(F)F", "hERG current change (%, negative = inhibition) at 1uM": 12.8},
      {"smiles": "O=C(Nc1ccccc1)N1CCN(S(=O)(=O)c2ccccc2)CC1", "hERG current change (%, negative = inhibition) at 1uM": 10.1},
      {"smiles": "CCOC(=O)C1(Cc2cccc(OC)c2)CCN(Cc2cccc(OCC)c2O)CC1", "hERG current change (%, negative = inhibition) at 1uM": -33.4},
      {"smiles": "CCN(C(=O)c1cccc(NC(=O)c2ccccc2)c1)C1CCCCC1", "hERG current change (%, negative = inhibition) at 1uM": 7.25},
      {"smiles": "CCOCCn1ccc2c(OCC(=O)Nc3ccc(OC)c(OC)c3)cccc2c1=O", "hERG current change (%, negative = inhibition) at 1uM": 9.94},
      {"smiles": "COc1ccc(-c2nc3nc(N)nn3cc2C)cc1F", "hERG current change (%, negative = inhibition) at 1uM": 16},
      {"smiles": "N#Cc1ccc(C(=O)Nc2ccc3ccccc3c2)cc1", "hERG current change (%, negative = inhibition) at 1uM": 19.4},
      {"smiles": "CCn1cc(/C=N\\NC(=O)c2ccc3c(c2)c(C)c(C)n3Cc2ccccc2)c(C)n1", "hERG current change (%, negative = inhibition) at 1uM": -0.688},
      {"smiles": "Cn1c(/C(C#N)=C/C2CC=CCC2)nc2ccccc21", "note": "(stereo not shown)", "hERG current change (%, negative = inhibition) at 1uM": -6.71},
      {"smiles": "C/C(N)=C(/C#N)C(=O)COC(=O)c1ccc(O)cc1", "hERG current change (%, negative = inhibition) at 1uM": 9.13},
      {"smiles": "CCOC(=O)c1c(CSc2ccc(C)cc2)n(C)c2cc(Br)c(O)c(CN(C)C)c12.Cl.O", "hERG current change (%, negative = inhibition) at 1uM": 18},
      {"smiles": "OCCC#Cc1ccc(CN2CCN(Cc3ccccc3)C(CCO)C2)cc1", "note": "(stereo not shown)", "hERG current change (%, negative = inhibition) at 1uM": -0.519},
      {"smiles": "Cc1ccc(N(CC(=O)N2CCc3ccccc32)S(=O)(=O)c2cccs2)cc1", "hERG current change (%, negative = inhibition) at 1uM": 8.95},
      {"smiles": "C[C@@H]1O[C@@H](O[C@H]2[C@H](Oc3cc(O)c4c(c3)OC(c3ccc(O)cc3)CC4=O)O[C@H](CO)[C@@H](O)[C@@H]2O)[C@H](O)[C@H](O)[C@H]1O", "note": "(stereo partly shown)", "hERG current change (%, negative = inhibition) at 1uM": 11.9},
      {"smiles": "O=C(C1=C[C@H](c2coc3ccccc3c2=O)C[C@H](OCc2ccc(CO)cc2)O1)N1CCOCC1", "hERG current change (%, negative = inhibition) at 1uM": -8.3},
      {"smiles": "CC(=O)c1ccc(OCCOc2ccc(C#N)cc2)cc1", "hERG current change (%, negative = inhibition) at 1uM": -5.61},
      {"smiles": "CCOC(=O)CNc1ncc([N+](=O)[O-])cc1C#N", "hERG current change (%, negative = inhibition) at 1uM": 6.86},
      {"smiles": "Cn1nc(-c2ccccc2)c2nc3ccccc3nc21", "hERG current change (%, negative = inhibition) at 1uM": 2.37},
      {"smiles": "Cc1nc(NCCCn2ccnc2)c2ccccc2n1.Cl", "hERG current change (%, negative = inhibition) at 1uM": 11.3},
      {"smiles": "COc1cccc(C(=O)Nc2c(F)cccc2F)c1", "hERG current change (%, negative = inhibition) at 1uM": 14.3},
      {"smiles": "Cc1c(C(=O)N/N=C/c2ccc(N3CCOCC3)cc2)nc2ccccn12", "hERG current change (%, negative = inhibition) at 1uM": 10.5},
      {"smiles": "COC(=O)c1ccc(CN(c2ccc(OC)cc2)S(=O)(=O)c2ccccc2)cc1", "hERG current change (%, negative = inhibition) at 1uM": 12.4},
      {"smiles": "CC(=O)c1cnn(-c2nc3c(C)cccc3s2)c1C", "hERG current change (%, negative = inhibition) at 1uM": 4.11},
      {"smiles": "COC(=O)c1ccccc1Oc1cc(C(F)(F)F)nc(-c2ccccn2)n1", "hERG current change (%, negative = inhibition) at 1uM": 16},
      {"smiles": "COc1cc(-c2[nH]ncc2CN2CCSCC2)cc(OC)c1OC", "hERG current change (%, negative = inhibition) at 1uM": 6.12},
      {"smiles": "CCOc1cc(/C=N\\NC(=O)Cn2nnc3ccccc32)ccc1O", "hERG current change (%, negative = inhibition) at 1uM": 10},
      {"smiles": "O=C(Cc1ccsc1-c1ccccc1)NO", "hERG current change (%, negative = inhibition) at 1uM": 12.3},
      {"smiles": "COCCNC(=S)NN(c1ccccc1)c1ccccc1", "hERG current change (%, negative = inhibition) at 1uM": -1.69},
      {"smiles": "CC1=CC=CC2=NC(=O)CC(C)(C(=O)N(CC(=O)NC3CCCC3)Cc3ccc(Cl)cc3)N12", "note": "(stereo not shown)", "hERG current change (%, negative = inhibition) at 1uM": 18.9},
      {"smiles": "CCOC(=O)c1oc2cccc(O)c2c1CN(Cc1ccccc1)C(C)=O", "hERG current change (%, negative = inhibition) at 1uM": 0.711},
      {"smiles": "O=C(NCc1ccco1)c1cc2n(n1)C(C(F)(F)F)CC(c1ccc(Br)cc1)N2", "note": "(stereo not shown)", "hERG current change (%, negative = inhibition) at 1uM": -7.46},
      {"smiles": "Cc1ccc(SCC(=O)OCC(=O)N(CCC#N)c2ccccc2)cc1C", "hERG current change (%, negative = inhibition) at 1uM": 19.5},
      {"smiles": "c1ccc(-c2nnc(SCc3nc4ccccc4[nH]3)o2)cc1", "hERG current change (%, negative = inhibition) at 1uM": -3.74}
    ]}
  ]
}
